From paper PMC8748822
No constants are given. Whether binding was seen depends on the method and setting. In cells and extracts the contact can be indirect. Some entries that bind do so weakly or less than the wild type.

Protein sequences, listed by entry. Tags and fused reporters are not part of them.
UniProt A5YKK6: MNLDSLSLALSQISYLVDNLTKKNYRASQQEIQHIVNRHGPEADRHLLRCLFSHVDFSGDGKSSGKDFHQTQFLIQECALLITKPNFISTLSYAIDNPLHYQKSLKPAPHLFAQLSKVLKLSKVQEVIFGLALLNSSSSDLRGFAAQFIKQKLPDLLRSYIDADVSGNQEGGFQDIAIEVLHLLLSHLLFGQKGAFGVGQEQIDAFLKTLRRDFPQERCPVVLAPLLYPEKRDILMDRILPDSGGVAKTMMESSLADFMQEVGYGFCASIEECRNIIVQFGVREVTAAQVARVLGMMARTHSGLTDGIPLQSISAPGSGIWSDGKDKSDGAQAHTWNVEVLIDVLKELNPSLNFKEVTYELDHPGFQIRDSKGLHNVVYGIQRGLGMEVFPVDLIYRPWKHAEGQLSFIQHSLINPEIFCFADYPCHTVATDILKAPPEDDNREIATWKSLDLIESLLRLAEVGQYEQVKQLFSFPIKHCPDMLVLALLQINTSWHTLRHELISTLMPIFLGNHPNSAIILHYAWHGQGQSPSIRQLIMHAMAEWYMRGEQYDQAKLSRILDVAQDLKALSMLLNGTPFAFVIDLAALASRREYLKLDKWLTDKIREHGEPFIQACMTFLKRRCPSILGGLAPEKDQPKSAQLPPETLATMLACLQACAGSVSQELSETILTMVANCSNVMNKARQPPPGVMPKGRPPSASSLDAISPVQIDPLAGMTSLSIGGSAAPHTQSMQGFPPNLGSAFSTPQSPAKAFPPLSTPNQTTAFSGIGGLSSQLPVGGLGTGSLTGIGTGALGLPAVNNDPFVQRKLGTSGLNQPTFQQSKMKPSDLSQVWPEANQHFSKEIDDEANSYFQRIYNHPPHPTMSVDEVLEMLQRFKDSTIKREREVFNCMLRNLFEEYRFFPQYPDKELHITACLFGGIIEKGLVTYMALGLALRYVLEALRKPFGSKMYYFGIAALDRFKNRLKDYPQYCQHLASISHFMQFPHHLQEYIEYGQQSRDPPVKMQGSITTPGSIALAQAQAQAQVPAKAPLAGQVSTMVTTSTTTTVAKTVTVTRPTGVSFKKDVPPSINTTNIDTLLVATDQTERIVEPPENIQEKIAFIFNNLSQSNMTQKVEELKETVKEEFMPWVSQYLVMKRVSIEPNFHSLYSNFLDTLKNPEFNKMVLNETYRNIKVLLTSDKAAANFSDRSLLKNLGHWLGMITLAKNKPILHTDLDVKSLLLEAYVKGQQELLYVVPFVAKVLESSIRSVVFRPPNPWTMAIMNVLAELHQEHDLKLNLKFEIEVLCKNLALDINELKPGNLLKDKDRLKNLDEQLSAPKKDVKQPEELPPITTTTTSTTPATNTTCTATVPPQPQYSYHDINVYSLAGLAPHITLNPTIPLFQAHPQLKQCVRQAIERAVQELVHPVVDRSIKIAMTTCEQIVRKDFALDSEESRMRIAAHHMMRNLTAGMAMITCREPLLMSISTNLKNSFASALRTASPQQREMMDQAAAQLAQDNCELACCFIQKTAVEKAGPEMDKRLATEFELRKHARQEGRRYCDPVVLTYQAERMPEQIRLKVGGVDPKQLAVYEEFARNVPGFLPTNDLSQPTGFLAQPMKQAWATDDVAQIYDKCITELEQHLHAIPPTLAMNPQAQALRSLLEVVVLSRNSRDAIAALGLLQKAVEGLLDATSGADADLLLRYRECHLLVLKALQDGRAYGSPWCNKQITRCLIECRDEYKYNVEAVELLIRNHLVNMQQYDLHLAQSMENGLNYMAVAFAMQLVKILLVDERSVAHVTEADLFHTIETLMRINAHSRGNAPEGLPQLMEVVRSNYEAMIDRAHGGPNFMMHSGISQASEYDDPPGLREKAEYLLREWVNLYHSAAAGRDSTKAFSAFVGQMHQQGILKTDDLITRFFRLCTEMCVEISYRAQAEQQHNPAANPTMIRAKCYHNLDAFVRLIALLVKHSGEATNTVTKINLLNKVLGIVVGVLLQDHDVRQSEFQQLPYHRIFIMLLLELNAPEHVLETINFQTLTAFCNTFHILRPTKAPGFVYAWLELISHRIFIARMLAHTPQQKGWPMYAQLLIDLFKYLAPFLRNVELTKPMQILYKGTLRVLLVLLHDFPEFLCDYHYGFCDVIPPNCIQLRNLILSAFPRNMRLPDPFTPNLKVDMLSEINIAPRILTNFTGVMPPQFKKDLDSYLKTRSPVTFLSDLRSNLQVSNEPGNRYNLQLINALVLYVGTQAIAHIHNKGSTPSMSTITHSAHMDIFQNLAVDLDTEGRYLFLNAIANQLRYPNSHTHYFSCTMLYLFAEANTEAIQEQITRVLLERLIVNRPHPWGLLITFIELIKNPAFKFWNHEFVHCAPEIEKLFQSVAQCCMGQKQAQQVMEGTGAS

Experiments:
[1] = biological target: endogenous TASOR (human (endogenous in HeLa and in Jurkat-derived J-Lat A1)) (UniProt Q9UK61); assay: co-IP; TASOR or rabbit IgG immunoprecipitation in J-Lat A1 lysates; western blot
[2] = biological target: TASOR-DDK (pLenti-TASOR-myc-DDK) (human) (UniProt Q9UK61); assay: co-IP
[3] = biological target: T1, TASORΔPARP-DDK (human) (UniProt Q9UK61); assay: co-IP
T1 sequence: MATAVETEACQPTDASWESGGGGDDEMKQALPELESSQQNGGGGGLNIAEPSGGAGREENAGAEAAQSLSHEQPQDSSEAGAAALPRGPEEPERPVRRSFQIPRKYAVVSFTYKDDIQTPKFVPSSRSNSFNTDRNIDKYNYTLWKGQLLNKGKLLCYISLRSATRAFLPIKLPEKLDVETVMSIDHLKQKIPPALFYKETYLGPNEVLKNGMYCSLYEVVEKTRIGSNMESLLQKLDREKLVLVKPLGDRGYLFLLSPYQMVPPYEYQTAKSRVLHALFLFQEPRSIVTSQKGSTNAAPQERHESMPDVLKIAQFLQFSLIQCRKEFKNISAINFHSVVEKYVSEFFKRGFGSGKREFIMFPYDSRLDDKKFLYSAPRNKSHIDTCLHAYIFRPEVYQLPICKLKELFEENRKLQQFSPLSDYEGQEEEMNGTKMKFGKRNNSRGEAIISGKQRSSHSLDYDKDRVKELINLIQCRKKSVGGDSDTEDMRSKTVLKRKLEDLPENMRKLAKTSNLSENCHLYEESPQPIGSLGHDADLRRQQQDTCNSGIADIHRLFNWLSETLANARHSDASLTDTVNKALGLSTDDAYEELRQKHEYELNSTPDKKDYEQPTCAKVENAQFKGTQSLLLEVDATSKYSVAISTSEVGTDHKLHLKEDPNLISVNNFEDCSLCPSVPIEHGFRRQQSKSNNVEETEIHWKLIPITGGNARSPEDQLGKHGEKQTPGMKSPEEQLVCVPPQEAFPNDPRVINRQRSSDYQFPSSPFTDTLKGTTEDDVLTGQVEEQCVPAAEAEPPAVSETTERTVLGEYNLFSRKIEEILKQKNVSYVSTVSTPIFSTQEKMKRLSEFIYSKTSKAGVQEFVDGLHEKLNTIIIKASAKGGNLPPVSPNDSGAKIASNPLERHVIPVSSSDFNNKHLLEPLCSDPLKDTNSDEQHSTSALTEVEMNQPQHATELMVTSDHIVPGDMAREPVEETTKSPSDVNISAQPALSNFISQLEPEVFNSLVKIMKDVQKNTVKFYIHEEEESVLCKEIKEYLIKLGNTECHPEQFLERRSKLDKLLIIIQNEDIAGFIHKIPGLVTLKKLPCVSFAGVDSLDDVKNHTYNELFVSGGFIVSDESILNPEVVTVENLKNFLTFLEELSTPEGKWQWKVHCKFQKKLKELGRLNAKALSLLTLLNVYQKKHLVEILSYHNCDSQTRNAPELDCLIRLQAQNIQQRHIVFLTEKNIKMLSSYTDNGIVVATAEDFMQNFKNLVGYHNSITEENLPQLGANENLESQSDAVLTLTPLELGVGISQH

[4] = biological target: endogenous TASOR (human (endogenous in HeLa and in Jurkat-derived J-Lat A1)) (UniProt Q9UK61); assay: co-IP; endogenous immunoprecipitation (anti-TASOR, anti-CNOT1 or anti-MTR4, 4 µg antibody overnight, protein A/G magnetic beads) from the nuclear fraction of HeLa HIV-1 LTR-ΔTAR-Luc cells; western blot

For “endogenous CNOT1 (CCR4-NOT transcription complex subunit 1) (from UniProt A5YKK6 1-2376)”, the binding [1] was “binds”, the binding [2] was “binds” and the binding [3] was “no binding”. For the same substance, the binding [4] was “binds”.
